Out of some 310,000 compounds screened, about 14,000 (4.5%) showed an effect of 50% or more. The effect is printed as a negative number. Some of the results follow.
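Further: peak tail current of the secondary pulse compared with the same well before compound.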

The target in this assay is human ether-à-go-go-related gene (hERG) potassium channel (human, UniProt Q12809). The assay is described as follows: primary screen, population patch clamp on CHO cells stably expressing hERG.
human ether-à-go-go-related gene (hERG) potassium channel, sequence (Q12809 whole entry, looked up): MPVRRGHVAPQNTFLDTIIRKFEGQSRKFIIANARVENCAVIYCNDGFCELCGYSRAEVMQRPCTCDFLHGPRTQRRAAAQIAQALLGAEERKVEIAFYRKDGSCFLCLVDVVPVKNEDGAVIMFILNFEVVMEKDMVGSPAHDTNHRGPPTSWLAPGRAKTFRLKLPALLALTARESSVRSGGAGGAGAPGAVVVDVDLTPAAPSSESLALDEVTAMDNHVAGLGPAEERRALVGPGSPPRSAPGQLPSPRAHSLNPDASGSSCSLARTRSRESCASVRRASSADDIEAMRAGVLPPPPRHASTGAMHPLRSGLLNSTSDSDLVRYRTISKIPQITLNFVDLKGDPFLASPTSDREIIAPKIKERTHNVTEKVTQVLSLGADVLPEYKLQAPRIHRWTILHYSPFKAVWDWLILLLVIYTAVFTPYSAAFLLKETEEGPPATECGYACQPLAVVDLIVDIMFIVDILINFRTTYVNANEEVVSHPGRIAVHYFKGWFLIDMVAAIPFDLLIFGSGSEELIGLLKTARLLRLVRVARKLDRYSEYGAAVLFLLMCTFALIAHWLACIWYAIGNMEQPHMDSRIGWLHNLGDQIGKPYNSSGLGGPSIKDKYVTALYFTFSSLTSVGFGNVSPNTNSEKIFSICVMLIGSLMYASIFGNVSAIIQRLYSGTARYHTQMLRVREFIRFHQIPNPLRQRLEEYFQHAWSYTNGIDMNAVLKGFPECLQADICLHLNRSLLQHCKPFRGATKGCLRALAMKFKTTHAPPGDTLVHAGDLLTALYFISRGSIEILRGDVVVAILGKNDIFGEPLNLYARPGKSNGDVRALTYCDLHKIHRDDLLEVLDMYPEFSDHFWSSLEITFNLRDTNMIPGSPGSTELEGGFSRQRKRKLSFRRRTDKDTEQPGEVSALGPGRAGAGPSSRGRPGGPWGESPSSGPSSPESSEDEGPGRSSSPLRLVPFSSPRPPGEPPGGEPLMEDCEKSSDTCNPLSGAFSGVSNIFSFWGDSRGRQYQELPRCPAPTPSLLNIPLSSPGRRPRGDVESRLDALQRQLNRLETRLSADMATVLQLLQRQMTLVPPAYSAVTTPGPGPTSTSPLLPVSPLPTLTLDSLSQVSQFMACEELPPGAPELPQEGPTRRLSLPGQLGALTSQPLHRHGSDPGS
Consider `CN(C(=O)CSc1nnc(COc2ccccc2F)n1N)C1CCCCC1`, for which the “hERG current change (%, negative = inhibition) at 10uM” value was -7.7%.

With `COc1ccc(C)cc1NS(=O)(=O)c1ccc2c(c1)CCN2C(C)=O`, the “hERG current change (%, negative = inhibition) at 10uM” value is on record as -17.2%. The figure for `O=C(O)c1ccccc1C(=O)Nc1ccc(S(=O)(=O)Nc2ccc(F)cc2)cc1` is 21.4%; for `Br.CCOC(=O)Cn1c(=N)n(Cc2ccccc2)c2ccccc21` it is -34.6%; for `COc1ccccc1-n1c(/C=C/c2ccc(O)cc2)nc2ccccc2c1=O` it is 16.5%. For `COc1ccc(OC)c(NC(=O)C2C3C=CC(C3)C2C(=O)NCc2cccnc2)c1` (stereo not drawn), the “hERG current change (%, negative = inhibition) at 10uM” value is -0.666%. In the case of `COCCn1c(SCC(=O)NCc2ccco2)nc2cccnc21` it was 14.8%; in that of `CN1CCN(c2sc(S(C)(=O)=O)nc2S(=O)(=O)c2ccc(Cl)cc2)CC1`, -25.9%. As to `CC(C)CC(=O)Nc1ccc2c(c1)OCO2`, the “hERG current change (%, negative = inhibition) at 10uM” value was found to be 19.7%. For `Cc1cccc(C)c1Nc1nnc(SCC(=O)Nc2ncc(C(F)(F)F)cc2Cl)s1`, the “hERG current change (%, negative = inhibition) at 10uM” value is on record as -16.8%. The figure for `Cc1cc(Cl)c(OCCCSc2nc(C)cc(=O)[nH]2)c(Br)c1` is -10.3%; for `Cl.NS(=O)(=O)c1ccc(CCNCc2cc(Br)ccc2OCc2ccccc2F)cc1` it is -75.9%. In the case of `C=CCc1ccccc1OCC(O)CNC(=O)c1ccccc1C(=O)O` (stereo not drawn) it was 13.6%.

For the compound `NS(=O)(=O)c1ccc2nc(NC(=O)C3CCCO3)sc2c1` (stereo not drawn), the “hERG current change (%, negative = inhibition) at 10uM” value was found to be 10.1%.

As for `CCN(CC)S(=O)(=O)c1ccc(N2CC(C(=O)NCCC3=CCCCC3)CC2=O)cc1` (stereo not drawn), the “hERG current change (%, negative = inhibition) at 10uM” value was -0.538%. On to `Cc1ccc(C(=O)N2CCOCC2)cc1[N+](=O)[O-]`, for which the “hERG current change (%, negative = inhibition) at 10uM” value was determined as 18.8%. With `CCOc1ccc(NC(=O)CCN2CCN(S(=O)(=O)c3cc(Cl)ccc3OC)CC2)cc1`, the “hERG current change (%, negative = inhibition) at 10uM” value was -46.1%. Regarding `C/C(Cc1ccccc1)=N/NC(=O)CCCC(=O)N/N=C(/C)Cc1ccccc1`, the “hERG current change (%, negative = inhibition) at 10uM” value is recorded as 18.1%. For the compound `COc1ccc(-c2ccc3ccccc3n2)cc1`, the “hERG current change (%, negative = inhibition) at 10uM” value was determined as 20.5%. Turning to `CCOC(=O)c1cnn(-c2ccccc2)c1NC(=O)CCl`, the “hERG current change (%, negative = inhibition) at 10uM” value came to 17.2%.

Consider `COc1ccc2[nH]c3c(NCCCOC(C)C)ncnc3c2c1`, for which the “hERG current change (%, negative = inhibition) at 10uM” value came to 9.68%.

In the case of `O=C(c1sc2ccccc2c1Cl)N(Cc1ccccc1)C1CCS(=O)(=O)C1` (stereo not drawn), the “hERG current change (%, negative = inhibition) at 10uM” value came out at 8.99%.

For the compound `COc1ccc(NC(C)C(=O)N/N=C/c2c(O)ccc3ccccc23)cc1` (stereo not drawn), the “hERG current change (%, negative = inhibition) at 10uM” value was 19.6%. In the case of `COc1ccc(OCc2cc(C(=O)NCCCc3ccccc3)no2)c(Cl)c1` it was -6.31%.
